# Source: PubChem BioAssay AID504333 (National Center for Advancing Translational Sciences (NCATS), 2011)
# In all, about 360,000 compounds went through this assay and about 16,000 (4.4%) were called active. Inconclusive means that the source gave no clear call. Such entries were picked first, then a sample of the others. Calls come from the whole dose curve; as a rule, active = well fitted inhibition curve with a large enough effect; inconclusive = small, poorly fitted or top-dose-only effect; inactive = no such curve, though single readings can be large or run the other way. Where the call is inconclusive, the potency comes from a doubtful curve fit.
# Target: Bromodomain adjacent to zinc finger domain protein 2B (Homo sapiens) (UniProt Q9UIF8)
# Assay: qHTS Assay for Inhibitors of BAZ2B; note: nearly all actives have a fitted effect of over 60% in size
# Details: AlphaScreen BAZ2B-H3K14Ac peptide displacement; series mostly up to 114 µM
# Outline: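 AlphaScreen displacement of biotin-H3(5-23)K14Ac peptide (50 nM final) from BAZ2B (50 nM final) in PBS pH 7.4, 0.01% Tween-20; complex preformed 30 min RT, then compounds (top 110 uM) 30 min RT, beads 20 min dark.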
# Potency is the fitted concentration of half-maximal effect; tags give direction and shape of the fitted curve.
# Chain of UniProt Q9UIF8 (Q9UIF8 whole entry, looked up, the tested form may be a part): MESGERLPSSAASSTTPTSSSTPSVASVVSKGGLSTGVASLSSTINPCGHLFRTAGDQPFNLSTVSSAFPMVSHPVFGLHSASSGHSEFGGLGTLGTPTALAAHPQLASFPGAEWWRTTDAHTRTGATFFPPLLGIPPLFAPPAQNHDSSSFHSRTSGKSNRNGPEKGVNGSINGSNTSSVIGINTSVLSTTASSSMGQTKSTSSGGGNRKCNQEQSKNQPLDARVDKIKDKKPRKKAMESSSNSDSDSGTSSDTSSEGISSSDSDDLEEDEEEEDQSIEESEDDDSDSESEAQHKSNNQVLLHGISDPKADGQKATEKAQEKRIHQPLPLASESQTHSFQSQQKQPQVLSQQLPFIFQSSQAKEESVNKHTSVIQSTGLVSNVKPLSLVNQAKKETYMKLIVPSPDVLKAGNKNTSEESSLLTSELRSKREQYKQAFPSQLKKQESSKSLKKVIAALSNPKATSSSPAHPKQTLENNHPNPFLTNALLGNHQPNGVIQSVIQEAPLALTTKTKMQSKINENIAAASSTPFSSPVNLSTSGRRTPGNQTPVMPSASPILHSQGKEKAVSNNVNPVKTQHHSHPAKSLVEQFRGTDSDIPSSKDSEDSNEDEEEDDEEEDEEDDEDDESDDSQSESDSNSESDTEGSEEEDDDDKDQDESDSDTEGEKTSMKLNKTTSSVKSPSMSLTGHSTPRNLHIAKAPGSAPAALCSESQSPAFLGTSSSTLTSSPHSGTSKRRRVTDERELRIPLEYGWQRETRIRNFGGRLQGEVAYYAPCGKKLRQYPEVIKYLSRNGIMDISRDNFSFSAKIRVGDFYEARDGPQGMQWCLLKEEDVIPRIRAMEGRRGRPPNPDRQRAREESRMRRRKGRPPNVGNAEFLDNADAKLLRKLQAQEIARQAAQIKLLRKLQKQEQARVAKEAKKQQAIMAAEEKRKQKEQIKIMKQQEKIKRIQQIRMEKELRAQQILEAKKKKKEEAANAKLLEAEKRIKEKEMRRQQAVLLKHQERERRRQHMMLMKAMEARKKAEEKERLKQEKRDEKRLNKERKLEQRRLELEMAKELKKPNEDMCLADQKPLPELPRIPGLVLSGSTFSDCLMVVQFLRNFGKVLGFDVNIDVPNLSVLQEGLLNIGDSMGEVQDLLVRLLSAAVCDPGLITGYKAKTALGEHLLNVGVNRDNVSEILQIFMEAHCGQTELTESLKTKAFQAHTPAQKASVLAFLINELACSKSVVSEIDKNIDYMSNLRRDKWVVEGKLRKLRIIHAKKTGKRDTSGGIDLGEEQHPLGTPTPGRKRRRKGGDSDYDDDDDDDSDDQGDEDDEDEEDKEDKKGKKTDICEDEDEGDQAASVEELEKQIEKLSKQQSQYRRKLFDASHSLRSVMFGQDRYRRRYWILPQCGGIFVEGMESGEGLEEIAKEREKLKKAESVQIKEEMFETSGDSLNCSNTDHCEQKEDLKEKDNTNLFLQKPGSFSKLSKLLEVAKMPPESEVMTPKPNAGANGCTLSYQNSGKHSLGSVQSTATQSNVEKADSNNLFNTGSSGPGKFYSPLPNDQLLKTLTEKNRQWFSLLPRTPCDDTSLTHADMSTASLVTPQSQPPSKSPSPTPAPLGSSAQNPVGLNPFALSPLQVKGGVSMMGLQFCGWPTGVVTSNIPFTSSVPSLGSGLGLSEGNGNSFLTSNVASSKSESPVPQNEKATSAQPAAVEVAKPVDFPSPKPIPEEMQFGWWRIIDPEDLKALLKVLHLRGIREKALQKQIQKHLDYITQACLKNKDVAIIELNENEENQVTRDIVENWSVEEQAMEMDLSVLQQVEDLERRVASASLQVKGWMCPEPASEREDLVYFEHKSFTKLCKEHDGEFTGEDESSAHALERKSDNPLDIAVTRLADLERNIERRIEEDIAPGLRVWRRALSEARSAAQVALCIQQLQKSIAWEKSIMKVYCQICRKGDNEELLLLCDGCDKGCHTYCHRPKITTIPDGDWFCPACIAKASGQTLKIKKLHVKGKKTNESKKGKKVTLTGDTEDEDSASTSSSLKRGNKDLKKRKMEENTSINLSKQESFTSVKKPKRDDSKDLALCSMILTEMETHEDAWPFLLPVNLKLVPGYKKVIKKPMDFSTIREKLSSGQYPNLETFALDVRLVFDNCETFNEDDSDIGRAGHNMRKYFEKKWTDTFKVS
row,SMILES,Potency
1,CN(C)c1nc(-c2ccc([N+](=O)[O-])cc2)cs1,"inconclusive: 79.4 µM [inhibitor, single point]"
2,CCNC(=S)Nc1ccc(C)c(S(=O)(=O)Nc2ccccc2OC)c1,inactive
3,COc1cc(OC)cc(C(=O)NC(=S)Nc2ccc(Cl)c(C(=O)O)c2)c1,"inconclusive: 89.1 µM [inhibitor, single point]"
4,CCN(CC)c1ccc(NC(=O)c2c(C)nn(-c3ccc(F)cc3)c2-n2cccc2)c(C)c1,active: 35.5 µM
5,COc1ccc(OC)c(NC(=O)c2c(NCc3cccs3)sc3c2CCCCC3)c1,active: 22.4 µM
6,CC(O)CNCCNCc1c(OCc2ccccc2)ccc2ccccc12 (stereo not given),"inconclusive: 5.62 µM [inhibitor, full curve]"
7,O=C(CCc1ccccc1)c1ccc2c(c1)OCCCO2,inactive
8,COc1ccc(Cc2noc(CN3CCCN(C4Cc5ccccc5C4)CC3)n2)cc1OC,"inconclusive: 79.4 µM [inhibitor, single point]"
9,COc1ccc(CC(=O)NNc2ncnc3c2cnn3C)cc1OC,inactive
10,COc1cccc(OC)c1C(=O)NC(=S)NCc1ccco1,active: 79.4 µM
11,Cn1c(=O)n(C)c2cc3[nH]cnc3cc21,"inconclusive: 79.4 µM [inhibitor, single point]"
12,Cc1cc(NC(=O)c2cncc(Br)c2)ccc1NC(=O)c1cc2ccccc2o1,"inconclusive: 56.2 µM [inhibitor, partial curve]"
13,C/C(N)=C(/C#N)C(=O)CSc1nnc(Nc2cccc(C)c2)s1,"inconclusive: 89.1 µM [inhibitor, single point]"
14,Cc1cc(OCC(O)CN2CCN(c3ccccn3)CC2)cc(C)c1Cl (stereo not given),"inconclusive: 50.1 µM [inhibitor, partial curve]"
15,COc1ccccc1N1C(=O)C2C3C=CC(CC3)C2C1=O (stereo not given),"inconclusive: 89.1 µM [inhibitor, single point]"
16,COc1ccc(-c2cc(C)no2)cc1S(=O)(=O)N1CCN(c2cccc(C)c2)C(C)C1 (stereo not given),"inconclusive: 31.6 µM [inhibitor, full curve]"
17,CC12CCC(C(=O)Nc3ccncc3)(CC1O)C2(C)C (stereo not given),inactive
18,CCOC(=O)c1scc(-c2ccccc2)c1S(=O)(=O)N1CCN(c2ccc(Cl)cc2)CC1,inactive
19,Cc1ccc(S(=O)(=O)NC2OC(=O)C(Cl)=C2Cl)cc1 (stereo not given),active: 79.4 µM
20,O=C1C(N2CCOCC2)=C(n2nnc3ccccc32)C(=O)c2ccccc21,active: 10 µM
21,Cc1ccc(NC(=O)c2ccc(NC(=O)N3CCSc4ncccc43)cc2)c(Cl)c1,inactive
22,Oc1c(N=NC(=S)Nc2ccccc2F)c2ccccc2n1Cc1ccc(Cl)cc1,"inconclusive: 2.51 µM [inhibitor, full curve]"
23,CCC(Sc1nc2c(c(=O)n1CC)SC(C)C2)C(=O)OC (stereo not given),inactive
24,O=C(c1c(O)cc(O)cc1O)C1c2c(cc(O)c3c2O[C@H](c2ccc(O)cc2)[C@@H](O)C3)OC1c1ccc(O)cc1 (stereo not given in full),"inconclusive: 50.1 µM [inhibitor, partial curve]"
25,CSc1ccc(C2c3[nH]c4ccccc4c3CCN2C(=O)c2ccnn2C)cc1 (stereo not given),"inconclusive: 79.4 µM [inhibitor, partial curve]"

row,SMILES,Potency
1,Cc1ccc(Sc2ccc(N3CCC(C(=O)Nc4cc(C)cc(C)c4)CC3)nn2)cc1,inactive
2,Cc1ccc2c(c1)CCCN2CC(=O)Nc1cc(S(=O)(=O)N2CCCC2)ccc1Cl,"inconclusive: 31.6 µM [inhibitor, full curve]"
3,O=C(Cn1c(=O)n(-c2ccccc2)c(=O)c2c3c(sc21)CCC3)c1ccc(F)cc1,inactive
4,COCCn1c(C)cc(C(=O)COC(=O)CCc2ccc(S(=O)(=O)N3CCOCC3)cc2)c1C,"inconclusive: 89.1 µM [inhibitor, single point]"
5,CC1=C(C(=O)OCc2ccccc2)C(c2ccoc2)C(C#N)=C(N)O1 (stereo not given),"inconclusive: 70.8 µM [inhibitor, single point]"
6,COc1ccc2cc(S(=O)(=O)n3cnc(C)c3)ccc2c1,"inconclusive: 89.1 µM [inhibitor, single point]"
7,Nc1nc(N)nc(-c2ccc(Cl)cc2)n1,active: 79.4 µM
8,O=[N+]([O-])c1ccc(Nc2cccc(F)c2)nc1,inactive
9,COc1ccc(N(CC(=O)NCCSCc2cccc(Cl)c2)S(C)(=O)=O)cc1Cl,inactive
10,CN=C(Nc1ccc(C(=O)OC)s1)c1ccc(Cl)cc1,"inconclusive: 70.8 µM [inhibitor, single point]"
11,Cc1ccc2c(CC(=O)OCc3cc(=O)n4c(n3)sc3ccccc34)coc2c1,"inconclusive: 39.8 µM [inhibitor, partial curve, poor fit]"
12,COc1cc(OC)cc(C(=O)NC(=S)NCCc2ccccc2)c1,"inconclusive: 44.7 µM [inhibitor, full curve, poor fit]"
13,O=C(CNCc1ccc(F)cc1)Nc1ccc(C(=O)N2CCCCC2)cc1,active: 31.6 µM
14,CCOC(=O)N1CC=C2C(C#N)=C(N)C(C#N)(C#N)[C@H](c3ccc(OC(C)C)c(OCC)c3)[C@H]2C1,"inconclusive: 79.4 µM [inhibitor, partial curve]"
15,O=Cc1ccc(Oc2nc(Cl)ncc2F)cc1,"inconclusive: 89.1 µM [inhibitor, single point]"
16,CC1=NN(c2ccccc2)C(=O)/C1=C/c1cc(C)n(C2CC2)c1C,"inconclusive: 7.08 µM [inhibitor, full curve, poor fit]"
17,CNCCCOc1ccc(C)cc1Br,active: 56.2 µM
18,Cn1cc(SCC(=O)N2CCOCC2)c2ccccc21,inactive
19,CCOc1ccc(/C=C/c2nc(C#N)c(N3CCN(CC)CC3)o2)cc1,"inconclusive: 79.4 µM [inhibitor, single point]"
20,CN(C)CCCn1c(SCC(=O)Nc2nc(-c3cccc(Br)c3)cs2)nc2ccccc2c1=O,"inconclusive: 39.8 µM [inhibitor, partial curve]"
21,C=CCn1c(SCC(=O)N2CC(C)OC(C)C2)nnc1-c1ccncc1 (stereo not given),inactive
22,CC(=O)c1cccc(OCc2cc(C(=O)N(C)Cc3ccc(C)o3)no2)c1,inactive
23,Cc1[nH]c2ccc(C(=O)N3CCN(c4ccccc4F)CC3)cc2c1C,"inconclusive: 70.8 µM [inhibitor, single point]"
24,O=C(CSc1nc(O)cc(=O)n1-c1ccccc1)c1ccc(Br)cc1,"inconclusive: 35.5 µM [inhibitor, partial curve, poor fit]"
25,CCCCC(=O)OCC(=O)Nc1ccc(SC(F)F)cc1,inactive

row,SMILES,Potency
1,COc1ccc(N2CCN(C(=O)c3cc4c(=O)n(Cc5cccnc5)ccc4nc3C)CC2)cc1,inactive
2,Cc1ccc(-c2csc(NC(=O)C3CC(=O)N(Cc4ccco4)C3)n2)cc1 (stereo not given),"inconclusive: 44.7 µM [inhibitor, partial curve]"
3,CCOc1cc(C(c2c(C)[nH]n(-c3ccccc3)c2=O)c2c(C)[nH]n(-c3ccccc3)c2=O)ccc1O,active: 11.2 µM
4,O=C(O)CCCCCn1c(SCC(=O)N2CCCC2)nc2ccsc2c1=O,"inconclusive: 5.01 µM [inhibitor, full curve, poor fit]"
5,CCC(=O)N1c2ccccc2NC2=C(C(=O)CCC2)C1c1ccc(N(C)C)cc1 (stereo not given),inactive
6,COc1cc(/C=C/C(C)=O)cc(OC)c1OC,inactive
7,O=C1Nc2ccccc2/C1=N/N=C/c1ccc(-c2ccc([N+](=O)[O-])cc2)o1,"inconclusive: 44.7 µM [inhibitor, partial curve]"
8,Cc1nc2ccc(NC(=O)c3ccc([N+](=O)[O-])cc3)cc2[nH]1,inactive
9,COc1ccc(CC(=O)NCC(=O)Nc2ccccc2Br)cc1,inactive
10,O=C1CSc2ccc(C(=O)Nc3cccc(S(=O)(=O)Nc4ccc(Br)cc4)c3)cc2N1,"inconclusive: 79.4 µM [inhibitor, partial curve]"
11,Cc1ccc(NNC2CC(=O)N(c3cccc(Cl)c3)C2=O)cc1 (stereo not given),"inconclusive: 70.8 µM [inhibitor, single point]"
12,Cc1noc(C)c1C(=O)Nc1ccc2c(c1)CCC2,"inconclusive: 89.1 µM [inhibitor, single point]"
13,COc1ccc(/C=N/c2c(-c3ccco3)nc3ccccn23)cc1OC,"inconclusive: 89.1 µM [inhibitor, single point]"
14,CCOc1cc(N2CCOCC2)c(OCC)cc1NC(=O)CC12CC3CC(CC(C3)C1)C2,active: 35.5 µM
15,CC1CCN(CC(=O)Nc2ccc(S(=O)(=O)NC3CC3)cc2)CC1,active: 50.1 µM
16,Cc1cc(N2C(=O)C=CC2=O)c([N+](=O)[O-])cc1C,active: 56.2 µM
17,Cc1oc(C)c2c(=O)ccc3c(c12)OC(N)=C(C#N)C3c1ccccc1Cl (stereo not given),"inconclusive: 50.1 µM [inhibitor, partial curve]"
18,CCCNC(=S)Nc1cc2oc3ccccc3c2cc1OC,"inconclusive: 70.8 µM [inhibitor, partial curve]"
19,CCOC(=O)NC(NS(=O)(=O)c1ccccc1)(C(=O)OCC)C(F)(F)F (stereo not given),inactive
20,Cc1ccccc1C(=O)N(Cc1ccc(N(C)C)cc1)Cc1ccco1,active: 35.5 µM
21,CN(C)c1ccc(CN(CC2CCCO2)C(=O)COc2ccccc2Cl)cc1 (stereo not given),active: 39.8 µM
22,N#Cc1ccc(-c2cccs2)nc1SCc1c(F)cccc1Cl,inactive
23,Fc1cccc(Cl)c1/C=C/c1cnc2ccccc2n1,inactive
24,COc1ccc(Nc2c3c(nc4ccc(NC(=O)/C=C/c5cc(OC)c(OC)c(OC)c5)cc24)CCCC3)cc1OC,active: 10 µM
25,CCN(CC)c1ccc(S(=O)(=O)N2CCOCC2)cc1NC(=O)CSc1nnc(N)s1,"inconclusive: 89.1 µM [inhibitor, single point]"
